Data reported in publication PMC4336329 (PLoS ONE, 2015).
Among all 310,000 compounds or so, about 14,000 (4.5%) showed an effect of 50% or more. The effect is printed as a negative number. Some of the results follow.
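Further: peak tail current of the secondary pulse compared with the same well before compound.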

These molecules were tested against human ether-à-go-go-related gene (hERG) potassium channel (human, UniProt Q12809) (assay: primary screen, population patch clamp on CHO cells stably expressing hERG).
Chain of human ether-à-go-go-related gene (hERG) potassium channel (Q12809 whole entry, looked up): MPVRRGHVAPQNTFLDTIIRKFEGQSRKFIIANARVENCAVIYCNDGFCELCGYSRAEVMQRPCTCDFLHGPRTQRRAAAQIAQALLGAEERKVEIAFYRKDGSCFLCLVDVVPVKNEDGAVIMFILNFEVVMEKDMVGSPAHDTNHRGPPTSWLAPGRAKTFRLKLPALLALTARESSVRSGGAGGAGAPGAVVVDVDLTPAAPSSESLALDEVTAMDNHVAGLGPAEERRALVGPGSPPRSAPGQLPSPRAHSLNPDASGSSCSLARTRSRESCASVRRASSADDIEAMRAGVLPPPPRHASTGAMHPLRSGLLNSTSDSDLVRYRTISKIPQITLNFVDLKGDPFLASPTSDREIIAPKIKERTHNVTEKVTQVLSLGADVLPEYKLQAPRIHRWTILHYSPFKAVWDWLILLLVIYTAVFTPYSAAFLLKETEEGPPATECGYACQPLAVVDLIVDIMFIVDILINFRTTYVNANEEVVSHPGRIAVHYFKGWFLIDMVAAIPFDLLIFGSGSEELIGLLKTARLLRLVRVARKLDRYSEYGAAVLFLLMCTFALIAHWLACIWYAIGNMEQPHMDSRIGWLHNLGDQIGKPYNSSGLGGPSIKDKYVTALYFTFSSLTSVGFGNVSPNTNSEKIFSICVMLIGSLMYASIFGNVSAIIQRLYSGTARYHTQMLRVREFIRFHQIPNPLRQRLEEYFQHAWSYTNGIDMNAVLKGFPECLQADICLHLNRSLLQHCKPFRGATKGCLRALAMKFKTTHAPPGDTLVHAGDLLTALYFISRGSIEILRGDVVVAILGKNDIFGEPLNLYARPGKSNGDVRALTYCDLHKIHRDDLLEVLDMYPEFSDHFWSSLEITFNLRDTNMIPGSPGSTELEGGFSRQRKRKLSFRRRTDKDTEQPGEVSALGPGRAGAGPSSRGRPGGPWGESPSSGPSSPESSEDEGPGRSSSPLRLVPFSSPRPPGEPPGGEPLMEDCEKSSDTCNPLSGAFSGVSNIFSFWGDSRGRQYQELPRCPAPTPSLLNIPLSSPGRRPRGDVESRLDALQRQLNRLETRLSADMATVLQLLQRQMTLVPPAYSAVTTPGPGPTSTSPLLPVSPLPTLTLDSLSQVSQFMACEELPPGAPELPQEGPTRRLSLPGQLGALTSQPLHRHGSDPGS
In the case of CC1(C)CC(=O)C/C(=N/Nc2nc3ccccc3s2)C1, the “hERG current change (%, negative = inhibition) at 10uM” value is reported as 15.2%. Cc1cc(C)c(NC(=O)CCn2nnc3ccccc32)c(C)c1 was tested, and the “hERG current change (%, negative = inhibition) at 10uM” value was 22%. In the case of Cc1ccc(CN(c2ccc(C(=O)Nc3ccc4c(c3)OCO4)cc2)S(C)(=O)=O)cc1, the “hERG current change (%, negative = inhibition) at 10uM” value is reported as 10.6%. O=C(CCN1C(=O)/C(=C/c2cccs2)SC1=S)NC1=NCCS1 was tested, and the “hERG current change (%, negative = inhibition) at 10uM” value was 12.2%. With COc1ccc(/C=C(\C#N)C(=O)OCCNC(=O)c2ccncc2)cc1 the “hERG current change (%, negative = inhibition) at 10uM” value was 0.758%. In the case of O=C(CCC1COc2ccccc2O1)Nc1ccccn1 (centres unmarked), the “hERG current change (%, negative = inhibition) at 10uM” value is reported as -6.45%. Cc1ccc(C(=O)NCCc2nnc3ccc(SCC(=O)N4CCCCC4)nn23)cc1 was tested, and the “hERG current change (%, negative = inhibition) at 10uM” value was 4.02%. For COc1ccc(-c2ccnc(SCC(=O)N3CCN(c4ccccc4)CC3)n2)cc1, the “hERG current change (%, negative = inhibition) at 10uM” value was 15.3%. In the case of O=C(NC(=S)Nc1ccc(F)cc1)c1ccc2c(c1)OCCO2, the “hERG current change (%, negative = inhibition) at 10uM” value is reported as -1.46%. In the case of COc1ccc(CCNC(=O)c2ccc(CN3CCC(Cc4ccccc4)CC3)cc2)cc1OC, the “hERG current change (%, negative = inhibition) at 10uM” value is reported as -67.9%. For CCC1(CC)C(=O)N(C)C(=O)NC1=Nc1ccccc1, the “hERG current change (%, negative = inhibition) at 10uM” value was 15.8%. For CC(Oc1ccc(Cl)cc1Cl)C(=O)NNC(=O)c1cccnc1 (centres unmarked), the “hERG current change (%, negative = inhibition) at 10uM” value was -15.4%. For O=C(CN1CCN(S(=O)(=O)c2ccccc2)CC1)Nc1cccc(C(F)(F)F)c1, the “hERG current change (%, negative = inhibition) at 10uM” value was -56.2%. O=C(c1cc(S(=O)(=O)N2CCOCC2)c(Cl)cc1Cl)N1CCCCC1CO (centres unmarked) was tested, and the “hERG current change (%, negative = inhibition) at 10uM” value was 9.85%. COc1ccc(S(=O)(=O)N2CCCN(S(=O)(=O)c3ccc(OC)cc3C)CC2)c(C)c1 was tested, and the “hERG current change (%, negative = inhibition) at 10uM” value was 7.74%. Cc1ccc(CS(=O)(=O)Cc2ccc(C(=O)NCc3ccccn3)o2)cc1 was tested, and the “hERG current change (%, negative = inhibition) at 10uM” value was -5.95%. COC(=O)C1=C(C)N=c2s/c(=C/c3cccs3)c(=O)n2C1c1ccc(F)cc1 (centres unmarked) was tested, and the “hERG current change (%, negative = inhibition) at 10uM” value was 0.786%. With COC(=O)c1ccc(N2CCC(C)CC2)c(N)c1 the “hERG current change (%, negative = inhibition) at 10uM” value was 0.238%. With C/C(=N\N1CCCCCC1)c1c(O)n(C2CCCCC2)c(=O)[nH]c1=O the “hERG current change (%, negative = inhibition) at 10uM” value was -9.93%. In the case of CC(=O)Nc1ccccc1NC(=O)COc1cccc2ccccc12, the “hERG current change (%, negative = inhibition) at 10uM” value is reported as 18.9%. COc1cc(C(=O)CSc2nnc(-c3ccc(O)cc3)n2CC2CCCO2)ccc1NC(C)=O (centres unmarked) was tested, and the “hERG current change (%, negative = inhibition) at 10uM” value was 5.16%. For Cc1nc2ccccc2c(=O)n1-c1ccc(F)c(NS(=O)(=O)c2ccccc2F)c1, the “hERG current change (%, negative = inhibition) at 10uM” value was 19.2%. c1ccc2[nH]c(NCc3ccc4c(c3)OCO4)nc2c1 was tested, and the “hERG current change (%, negative = inhibition) at 10uM” value was -4.7%. In the case of CCSc1ccc([C@@H]2[C@H]3C(=O)N(CC)C(=O)[C@H]3[C@]3(C(=O)OC)CCCCN23)cc1.O=C(O)C(F)(F)F, the “hERG current change (%, negative = inhibition) at 10uM” value is reported as -19.1%. CC(c1nnc(SCC(=O)N2CCc3ccccc32)n1-c1ccc(Cl)cc1)N(C)C (centres unmarked) was tested, and the “hERG current change (%, negative = inhibition) at 10uM” value was -12.6%. C=CCn1cc(C(=O)NCCCOC)c(=O)c2cc(S(=O)(=O)N(CC)CC)ccc21 was tested, and the “hERG current change (%, negative = inhibition) at 10uM” value was -30.5%. For CCc1cccc(C)c1NC(=O)CN(C)Cc1ccccc1F.O=C(O)C(=O)O, the “hERG current change (%, negative = inhibition) at 10uM” value was -23.8%. In the case of COC(=O)c1ccc(S(=O)(=O)c2ccc([N+](=O)[O-])cc2)cc1, the “hERG current change (%, negative = inhibition) at 10uM” value is reported as -3.9%. With O=C(N=C1SC2CS(=O)(=O)CC2N1c1cc(Cl)ccc1Cl)C1CC1 (centres unmarked) the “hERG current change (%, negative = inhibition) at 10uM” value was -4.65%. Cc1nn2c(N)c(C#N)cnc2c1-c1ccccc1 was tested, and the “hERG current change (%, negative = inhibition) at 10uM” value was -5.95%. In the case of Cn1nccc1C(=O)NCCN1C(=O)OC(C)(C)C1(C)O (centres unmarked), the “hERG current change (%, negative = inhibition) at 10uM” value is reported as -0.944%. In the case of COc1ccc(C(=O)Nc2ccccc2C(N)=O)cc1, the “hERG current change (%, negative = inhibition) at 10uM” value is reported as -18.9%. For O=C(NC1CCN(S(=O)(=O)c2ccc(F)cc2)CC1)c1cccnc1, the “hERG current change (%, negative = inhibition) at 10uM” value was -10.5%. With CC(C1CC2CCC1C2)N1CC(O)=C(c2nc3ccccc3[nH]2)C1=N (centres unmarked) the “hERG current change (%, negative = inhibition) at 10uM” value was -17.9%. With Cc1ccc(C(=O)COC(=O)c2cc(=O)[nH]c3ccccc23)cc1 the “hERG current change (%, negative = inhibition) at 10uM” value was 13.3%. In the case of Cc1cccc(OCC(=O)OC(C)C(=O)Nc2ccc(S(=O)(=O)N3CCCCC3)cc2)c1 (centres unmarked), the “hERG current change (%, negative = inhibition) at 10uM” value is reported as 8.69%. CN(C)c1nc2n(c(=O)n1)CCO2 was tested, and the “hERG current change (%, negative = inhibition) at 10uM” value was 20.3%. COc1ccc(C(C(=O)NCc2ccccc2)N(C(=O)c2snc(C(N)=O)c2N)c2ccccc2OC)cc1OC (centres unmarked) was tested, and the “hERG current change (%, negative = inhibition) at 10uM” value was -24.9%. For Fc1ccc(-c2cc(-c3nnc4n3CCCCC4)c3ccccc3n2)cc1, the “hERG current change (%, negative = inhibition) at 10uM” value was -63.5%. For CCCCN(CCCC)C(=O)c1cc(Cl)ccc1[N+](=O)[O-], the “hERG current change (%, negative = inhibition) at 10uM” value was -1.4%. For CSc1ncc(Cl)c(C(=O)O)n1, the “hERG current change (%, negative = inhibition) at 10uM” value was 15.8%. In the case of Cc1cc(C)c(C)c(OCCCn2ccnc2)c1, the “hERG current change (%, negative = inhibition) at 10uM” value is reported as -5.23%. COc1ccc(S(=O)(=O)N2CCN(C)CC2)cc1C(=O)Nc1ccccc1 was tested, and the “hERG current change (%, negative = inhibition) at 10uM” value was 1.79%. With CCOc1ccc(-n2c(N)c(C(=O)NCc3cccnc3)sc2=S)cc1 the “hERG current change (%, negative = inhibition) at 10uM” value was 12.4%.
